{
  "source": "the supplement of paper PMC3334620",
  "note": "In all, about 33,000 sequences were measured (“E-score (-0.5 to 0.5)”: median about -0.011, highest 2% from about 0.28 on). This is one part of the list.",
  "data": [
    {"target": "T1, Gcr1 (UniProt P07261)", "T1 sequence": "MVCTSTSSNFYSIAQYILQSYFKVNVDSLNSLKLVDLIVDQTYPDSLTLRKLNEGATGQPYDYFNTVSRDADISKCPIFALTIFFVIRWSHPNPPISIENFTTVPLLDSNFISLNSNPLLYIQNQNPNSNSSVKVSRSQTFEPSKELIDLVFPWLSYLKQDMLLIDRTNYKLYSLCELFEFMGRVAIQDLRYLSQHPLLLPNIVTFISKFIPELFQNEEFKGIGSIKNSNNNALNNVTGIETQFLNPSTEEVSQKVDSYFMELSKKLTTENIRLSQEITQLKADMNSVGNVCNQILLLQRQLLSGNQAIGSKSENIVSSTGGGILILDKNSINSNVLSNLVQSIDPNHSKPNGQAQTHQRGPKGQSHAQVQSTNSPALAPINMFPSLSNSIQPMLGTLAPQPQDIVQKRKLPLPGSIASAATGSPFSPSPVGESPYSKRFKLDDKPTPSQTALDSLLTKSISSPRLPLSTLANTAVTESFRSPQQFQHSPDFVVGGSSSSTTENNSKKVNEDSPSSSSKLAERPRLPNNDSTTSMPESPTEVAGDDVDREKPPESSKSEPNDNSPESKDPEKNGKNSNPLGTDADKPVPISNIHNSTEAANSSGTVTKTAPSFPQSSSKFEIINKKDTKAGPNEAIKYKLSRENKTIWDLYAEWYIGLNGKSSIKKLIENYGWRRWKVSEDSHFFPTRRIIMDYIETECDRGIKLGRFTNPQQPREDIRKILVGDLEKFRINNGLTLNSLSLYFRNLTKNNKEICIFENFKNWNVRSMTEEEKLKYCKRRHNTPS", "assay": "PBM E-score (8-mer binding enrichment) (E-score (-0.5 to 0.5)); higher = stronger / more preferred TF binding; most listed sequences are background and not binding sites", "settings": "protein concentration: 100 nM; construct: GST-full length", "how_it_was_run": "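For each ungapped eight-base word taken together with its reverse complement, the Universal PBM Analysis Suite assigned an E-score. Binding data came from GST-tagged yeast transcription factors, applied at about 100-200 nM, on universal all-10-mer Agilent arrays made double-stranded by primer extension. Fluorescent anti-GST marked bound protein, and scans were normalised with masliner.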", "values": [
      {"sequence": "ATAATCCG", "PBM E-score": -0.079},
      {"sequence": "GCAGCAGA", "PBM E-score": -0.135},
      {"sequence": "ATCTGTGG", "PBM E-score": 0.0552},
      {"sequence": "GCGTTACA", "PBM E-score": -0.105},
      {"sequence": "CCTTTCAC", "PBM E-score": -0.0596},
      {"sequence": "ATTGGCCG", "PBM E-score": -0.0518},
      {"sequence": "AGCGTGAT", "PBM E-score": -0.149},
      {"sequence": "GTACGTCA", "PBM E-score": -0.127},
      {"sequence": "TACAGGAA", "PBM E-score": 0.394},
      {"sequence": "CTACCTTA", "PBM E-score": 0.197},
      {"sequence": "ATGATTCG", "PBM E-score": 0.0357},
      {"sequence": "GAGTTCTA", "PBM E-score": 0.0617},
      {"sequence": "GCGTTTCC", "PBM E-score": -0.185},
      {"sequence": "AGTCGTAG", "PBM E-score": -0.0469},
      {"sequence": "GCATATTA", "PBM E-score": -0.0298},
      {"sequence": "CCTTGGCC", "PBM E-score": -0.327},
      {"sequence": "CAACGCTC", "PBM E-score": -0.313},
      {"sequence": "CAGAGGAG", "PBM E-score": -0.123},
      {"sequence": "ATTTGCAG", "PBM E-score": -0.0239},
      {"sequence": "GCGTTCCA", "PBM E-score": 0.112},
      {"sequence": "CCGCCCAA", "PBM E-score": -0.0971},
      {"sequence": "AGGCGAAG", "PBM E-score": 0.0258},
      {"sequence": "CAGACGCC", "PBM E-score": 0.329},
      {"sequence": "CAGCATAA", "PBM E-score": -0.0294},
      {"sequence": "CCTAAATC", "PBM E-score": 0.306},
      {"sequence": "CATAAAAA", "PBM E-score": 0.137},
      {"sequence": "GGATTCAA", "PBM E-score": -0.128},
      {"sequence": "AAACATCG", "PBM E-score": -0.0599},
      {"sequence": "CTTGTTGA", "PBM E-score": -0.138},
      {"sequence": "AATTCTAA", "PBM E-score": 0.17},
      {"sequence": "TGGGGAAA", "PBM E-score": 0.0107},
      {"sequence": "CGGTCCTA", "PBM E-score": -0.11},
      {"sequence": "ACATTGCT", "PBM E-score": 0.0699},
      {"sequence": "GACGTTCC", "PBM E-score": 0.0203},
      {"sequence": "GAATACTA", "PBM E-score": 0.0997},
      {"sequence": "ATAGGTTA", "PBM E-score": 0.203},
      {"sequence": "AGTAGACT", "PBM E-score": -0.048},
      {"sequence": "AACACCTT", "PBM E-score": -0.0171},
      {"sequence": "GACGAGGC", "PBM E-score": -0.246},
      {"sequence": "TCTTCCAA", "PBM E-score": -0.0111},
      {"sequence": "TAGCCACA", "PBM E-score": 0.032},
      {"sequence": "ACATTCTC", "PBM E-score": -0.175},
      {"sequence": "ACCCAGAC", "PBM E-score": 0.0501},
      {"sequence": "ACACCGCG", "PBM E-score": -0.19},
      {"sequence": "GAACCGGC", "PBM E-score": -0.0192},
      {"sequence": "CCTTATCA", "PBM E-score": 0.0532},
      {"sequence": "CCTGTGAG", "PBM E-score": -0.218},
      {"sequence": "CTAGGTTC", "PBM E-score": 0.193},
      {"sequence": "GGTACACA", "PBM E-score": -0.189},
      {"sequence": "CACAGATG", "PBM E-score": -0.188},
      {"sequence": "CAGGAGAA", "PBM E-score": -0.117},
      {"sequence": "AATCCGTG", "PBM E-score": -0.064},
      {"sequence": "CGTGCGGA", "PBM E-score": -0.122},
      {"sequence": "CATTGTGC", "PBM E-score": -0.141},
      {"sequence": "TACTAACA", "PBM E-score": 0.0643},
      {"sequence": "CGGCGGCC", "PBM E-score": 0.246},
      {"sequence": "CAAAGTTC", "PBM E-score": -0.117},
      {"sequence": "CTTATTAA", "PBM E-score": 0.149},
      {"sequence": "AGTATTCG", "PBM E-score": 0.175},
      {"sequence": "CAGGGCAG", "PBM E-score": -0.263},
      {"sequence": "AATCGGCT", "PBM E-score": 0.169},
      {"sequence": "GCCCATCC", "PBM E-score": -0.141},
      {"sequence": "ACAAGGCA", "PBM E-score": -0.21},
      {"sequence": "CAGCCACG", "PBM E-score": 0.12},
      {"sequence": "GTACACAC", "PBM E-score": -0.105},
      {"sequence": "AGTCTCAA", "PBM E-score": -0.0832},
      {"sequence": "GAGTGGCA", "PBM E-score": -0.0587},
      {"sequence": "ACTACCTG", "PBM E-score": 0.0272},
      {"sequence": "CCTGAGCA", "PBM E-score": 0.0217},
      {"sequence": "ACTACCAC", "PBM E-score": 0.101},
      {"sequence": "AATCCGTC", "PBM E-score": -0.0275},
      {"sequence": "GAACGGGA", "PBM E-score": 0.00857},
      {"sequence": "ACCCAAGC", "PBM E-score": -0.289},
      {"sequence": "CGAAGAAG", "PBM E-score": -0.0934},
      {"sequence": "AGAAATCC", "PBM E-score": -0.0373},
      {"sequence": "AGGGATTA", "PBM E-score": -0.15},
      {"sequence": "AAACTCTT", "PBM E-score": -0.106},
      {"sequence": "CTAGTGCC", "PBM E-score": -0.0209},
      {"sequence": "GACAAGGA", "PBM E-score": -0.0541},
      {"sequence": "CCTTGGAA", "PBM E-score": 0.0283},
      {"sequence": "GTGGCGGA", "PBM E-score": 0.0346},
      {"sequence": "AGGATACA", "PBM E-score": 0.0888},
      {"sequence": "AGTGGTAA", "PBM E-score": -0.099},
      {"sequence": "CGTCCATC", "PBM E-score": 0.0501},
      {"sequence": "CGAAGATC", "PBM E-score": -0.1},
      {"sequence": "CGTCGAAG", "PBM E-score": -0.144},
      {"sequence": "ACCTGTCG", "PBM E-score": -0.319},
      {"sequence": "GGCGTAAA", "PBM E-score": 0.101},
      {"sequence": "ACCGTCGA", "PBM E-score": -0.249},
      {"sequence": "ATTGAGAA", "PBM E-score": 0.128},
      {"sequence": "AAAAGGCT", "PBM E-score": -0.0808},
      {"sequence": "CCGACATA", "PBM E-score": 0.0516},
      {"sequence": "ACTAGGTA", "PBM E-score": -0.0397},
      {"sequence": "TGGGCCCA", "PBM E-score": 0.125}
    ]}
  ]
}
